Reference: publication PMC4336329 (PLoS ONE, 2015)
The campaign covered roughly 310,000 compounds. About 14,000 (4.5%) showed an effect of 50% or more. The effect is printed as a negative number. Some of the results follow.

biological target: human ether-à-go-go-related gene (hERG) potassium channel (human, UniProt Q12809); experiment: primary screen, population patch clamp on CHO cells stably expressing hERG
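Note: peak tail current of the secondary pulse compared with the same well before compound.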

Chain of human ether-à-go-go-related gene (hERG) potassium channel (Q12809 whole entry, looked up): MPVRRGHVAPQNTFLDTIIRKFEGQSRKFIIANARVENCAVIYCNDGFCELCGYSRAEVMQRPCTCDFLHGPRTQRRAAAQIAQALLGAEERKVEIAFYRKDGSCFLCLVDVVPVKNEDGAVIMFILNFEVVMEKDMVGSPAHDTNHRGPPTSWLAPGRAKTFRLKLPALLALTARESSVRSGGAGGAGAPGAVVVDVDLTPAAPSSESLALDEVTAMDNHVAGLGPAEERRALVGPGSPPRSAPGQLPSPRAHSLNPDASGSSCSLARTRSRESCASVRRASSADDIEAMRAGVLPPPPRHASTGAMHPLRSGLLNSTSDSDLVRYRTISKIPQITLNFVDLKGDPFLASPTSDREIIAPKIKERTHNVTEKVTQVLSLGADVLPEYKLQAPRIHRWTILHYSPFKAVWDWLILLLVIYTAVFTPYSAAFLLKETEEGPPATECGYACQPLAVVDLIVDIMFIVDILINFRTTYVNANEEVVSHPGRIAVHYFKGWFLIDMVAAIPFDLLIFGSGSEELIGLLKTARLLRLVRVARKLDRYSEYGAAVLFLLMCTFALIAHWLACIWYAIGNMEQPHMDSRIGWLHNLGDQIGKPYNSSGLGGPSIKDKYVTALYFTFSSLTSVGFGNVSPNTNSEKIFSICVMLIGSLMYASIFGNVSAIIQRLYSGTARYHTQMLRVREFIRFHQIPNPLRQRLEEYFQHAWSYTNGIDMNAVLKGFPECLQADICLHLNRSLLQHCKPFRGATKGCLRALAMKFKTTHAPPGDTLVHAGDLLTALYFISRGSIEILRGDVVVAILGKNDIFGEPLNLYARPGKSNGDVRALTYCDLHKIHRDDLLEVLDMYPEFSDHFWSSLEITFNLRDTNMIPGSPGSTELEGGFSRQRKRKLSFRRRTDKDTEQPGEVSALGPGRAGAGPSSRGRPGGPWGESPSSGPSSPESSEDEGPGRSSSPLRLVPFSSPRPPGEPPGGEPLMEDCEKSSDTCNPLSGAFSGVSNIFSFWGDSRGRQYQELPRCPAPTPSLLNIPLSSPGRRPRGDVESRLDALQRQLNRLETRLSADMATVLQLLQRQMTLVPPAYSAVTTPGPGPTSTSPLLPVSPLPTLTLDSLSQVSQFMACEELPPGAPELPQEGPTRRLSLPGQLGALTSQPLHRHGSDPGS

Compared with `O=C(c1ccccc1)C(Sc1ncn[nH]1)c1ccccc1` (centres unmarked), `CCN(C(=O)COc1ccc(C(=O)c2ccccc2)cc1)c1ccccc1` is lower in “hERG current change (%, negative = inhibition) at 10uM” value: -0.568% for the first, -18.9% for the second.

Compared with `Cc1ccc(S(=O)(=O)N2CCC(C(=O)N3CCC[C@H]3C(=O)NC3CCS(=O)(=O)C3)CC2)cc1` (some centres unmarked), `Cc1ccc(N(C(=O)C2CCCC2)C2C=CS(=O)(=O)C2)cc1` (centres unmarked) is higher in “hERG current change (%, negative = inhibition) at 10uM” value: -3.5% for the first, 3.58% for the second.

Going from `CC(=O)Nc1ccc(N(C(=O)c2ccco2)C(C(=O)NC2CCCCC2)c2ccccc2)cc1` (centres unmarked) to `O=C(O)c1ccc(NC(=S)NC(=O)c2cccc(COc3ccccc3)c2)cc1`, the “hERG current change (%, negative = inhibition) at 10uM” value rises from -9.56% to 25.6%.

First: C/C(=N\NC(=O)CN1CCN(c2ccc(F)cc2)CC1)c1ccco1
Second: COC(=O)c1ccccc1NC(=O)c1ccco1
The “hERG current change (%, negative = inhibition) at 10uM” value of the first is lower: -30.3% for the first, -6.46% for the second.

First: CCOC(=O)C1(c2ccccc2)CCN(Cc2cccc(C(=O)O)c2)CC1.Cl
Second: O=C(CN1CCCC1)NC(c1ccccc1)c1ccccc1.O=C(O)C(=O)O
The “hERG current change (%, negative = inhibition) at 10uM” value of the first is higher: 2.34% for the first, -34.7% for the second.

First: CC(=O)Nc1ccc(C(=O)OCc2ccc(Cl)c(Cl)c2)cc1
Second: CCOC(=O)c1ccc(N2C(=O)C(O)=C(C(C)=O)C2c2ccc(O)c(OC)c2)cc1 (centres unmarked)
The “hERG current change (%, negative = inhibition) at 10uM” value of the first is higher: 6.4% for the first, 6.04% for the second.

First: CC(=O)Nc1c(Nc2ccccc2)c2ccccc2oc1=O
Second: COc1ccccc1N(CN1C(=O)c2ccccc2C1=O)C(=O)c1cccc(C)c1
The “hERG current change (%, negative = inhibition) at 10uM” value of the first is higher: 3.92% for the first, -20.7% for the second.

Going from `CCOc1cc(C)c(S(=O)(=O)NC2CC(C)(C)NC(C)(C)C2)cc1C` to `COc1ccccc1OCCNC(=O)c1cccc(S(=O)(=O)N2CC(C)OC(C)C2)c1` (centres unmarked), the “hERG current change (%, negative = inhibition) at 10uM” value falls from 16.7% to -14.8%.

Going from `COc1ccc(Cl)cc1NC(=O)c1noc(C)c1[N+](=O)[O-]` to `Cc1cc(C)c2c(=O)n(CC(=O)Nc3ccc(Cl)cc3)sc2n1`, the “hERG current change (%, negative = inhibition) at 10uM” value rises from -29.5% to 8.25%.

Compared with `COC(=O)/C(=C1/Oc2ccc(C(C)(C)C)cc2S1)C(F)(F)F`, `COc1cc(NC(=S)NC(=O)CCc2ccccc2)cc(OC)c1` is lower in “hERG current change (%, negative = inhibition) at 10uM” value: 24.6% for the first, 0.899% for the second.

Compared with `Cc1ccccc1NC(=S)NCC(c1cccnc1)N(C)C` (centres unmarked), `Cc1ccc(SC(C)C(=O)Nc2cccnc2)cc1` (centres unmarked) is lower in “hERG current change (%, negative = inhibition) at 10uM” value: 14.6% for the first, 8.73% for the second.

Going from `COc1cccc(NC(=O)NC2(C(=O)N3CCC(O)CC3)CCCCC2)c1` to `O=c1[nH]c(CN2CCCCC2)nc2c1C1(CCCCC1)Cc1ccccc1-2`, the “hERG current change (%, negative = inhibition) at 10uM” value falls from 16.4% to 7.16%.

Going from `Cc1ccc(C(NC(=O)N2CCN(C)CC2)C(Cl)Cl)cc1F` (centres unmarked) to `CCOC(=O)Nc1ccc2c(c1)nc(CN1CCN(C(C)=O)CC1)n2C`, the “hERG current change (%, negative = inhibition) at 10uM” value rises from 0.45% to 10%.

Going from `Cc1sc(NC(=O)C2CC=CCC2C(=O)O)c(C(=O)OC(C)C)c1C` (centres unmarked) to `CCN(CC)CCNCC(=O)Nc1ccc(Cl)cc1C(=O)c1ccccc1.O=C(O)C(=O)O`, the “hERG current change (%, negative = inhibition) at 10uM” value falls from -4.12% to -75.2%.

Going from `Cc1ccn(S(=O)(=O)c2ccc(N3CCCC3=O)cc2)n1` to `Cc1cc(NS(=O)(=O)c2ccc(N)cc2)no1`, the “hERG current change (%, negative = inhibition) at 10uM” value falls from 16.2% to 12.4%.

Going from `O=C(N/N=C\C=C\c1ccco1)c1cc(-c2ccc3ccccc3c2)n[nH]1` to `COc1ccc(C2C(C(=O)NCc3ccco3)c3ccccc3C(=O)N2C)cc1` (centres unmarked), the “hERG current change (%, negative = inhibition) at 10uM” value rises from -4.1% to 20.5%.

Going from `CC(C)(C)C(=O)Nc1c2c(nc3c1CCC3)CCCC2` to `Cc1cc(N2CCN(C)CC2)nc2ccc(NC(=S)NC3CC3)cc12`, the “hERG current change (%, negative = inhibition) at 10uM” value rises from 1.53% to 3.2%.

Going from `COc1ccc(OC)c(NC(=O)CSc2nc(N)c(-c3ccccc3)c(=O)[nH]2)c1` to `COc1ccc(-n2c(SCC(=O)Nc3nccs3)nc3c(c2=O)SCC3)cc1`, the “hERG current change (%, negative = inhibition) at 10uM” value falls from 10.4% to 8.32%.

Going from `COCCN(C(=O)Cc1cccs1)C(C(=O)NCc1ccc(OC)cc1)c1ccc(C(C)C)cc1` (centres unmarked) to `COc1ccc(N(C(=O)COc2ccc(C)cc2)S(=O)(=O)c2ccc(C)cc2)cc1`, the “hERG current change (%, negative = inhibition) at 10uM” value rises from -14.1% to -9.87%.

Going from `O=C(Oc1nsnc1N1CCOCC1)N1CCOCC1` to `COc1ccccc1N1CCN(C(=O)CCNS(=O)(=O)c2cc(Br)cnc2N)CC1`, the “hERG current change (%, negative = inhibition) at 10uM” value falls from 15.3% to -13.1%.

Compared with `CC(=O)Nc1cccc2c1C(=O)N(c1cccc(OC(C)=O)c1)C2=O`, `Cc1cccc(-n2c(=O)[nH]c3c(C(N)=O)nc(C(C)C)nc32)c1` is lower in “hERG current change (%, negative = inhibition) at 10uM” value: 1.17% for the first, -11.9% for the second.

Going from `O=C(O)CCCC(=O)Nc1cc([N+](=O)[O-])ccc1O` to `CCOC(=O)c1cn(CC(=O)Nc2cccc(Cl)c2)nn1`, the “hERG current change (%, negative = inhibition) at 10uM” value falls from 18.4% to 11.6%.

Going from `C#CCNC(=O)C1=C[C@H](c2csc3ccccc23)[C@@H](CCCO)[C@H](OCC)O1` to `OCC[C@@H]1C[C@H](O)[C@@H](O)[C@@]2(CCCc3ccccc3O2)O1`, the “hERG current change (%, negative = inhibition) at 10uM” value rises from -22.6% to 16.2%.

Compared with `CC[n+]1c(SC)ccc2cc(OC)ccc21.[O-][Cl+3]([O-])([O-])[O-]`, `O=[N+]([O-])c1ccc(CSc2nc3ccccc3o2)cc1` is higher in “hERG current change (%, negative = inhibition) at 10uM” value: -10.6% for the first, 11% for the second.

Going from `CCn1c(C)cc2c(c1=O)C(c1ccncc1)C(C#N)=C(N)O2` (centres unmarked) to `CC(C)CCNC(=O)c1onc(CSc2ccncc2)c1C(=O)NCCC(C)C`, the “hERG current change (%, negative = inhibition) at 10uM” value rises from 2.4% to 6.45%.

First: C=CCn1c(SCc2nc(N)nc(N3CCCCC3)n2)nnc1-c1ccco1
Second: COc1ccc(Br)cc1/C=N/n1nnnc1N
The “hERG current change (%, negative = inhibition) at 10uM” value of the first is lower: -6.39% for the first, 9.08% for the second.

Going from `OCC#CC[N+]1(CC#Cc2ccccc2)CCCC1.[Br-]` to `Cl.OC(CNC1CCCC1)COc1ccc(Cl)cc1` (centres unmarked), the “hERG current change (%, negative = inhibition) at 10uM” value falls from 14.5% to -9.8%.

First: CC(C)NC(=O)NNC(=O)c1cc(COc2cc(Cl)cc(Cl)c2)on1
Second: CCC(=O)NC(Cc1ccccc1)c1ccc2c(c1)OCCCO2 (centres unmarked)
The “hERG current change (%, negative = inhibition) at 10uM” value of the first is lower: 2.67% for the first, 7.51% for the second.
